Publication PMC4336329 (PLoS ONE, 2015)
The whole screen tested about 310,000 compounds, of which about 14,000 (4.5%) showed an effect of 50% or more. The effect is printed as a negative number. Some of the results follow.

The compounds below were run against human ether-à-go-go-related gene (hERG) potassium channel (human, UniProt Q12809) (assay: primary screen, population patch clamp on CHO cells stably expressing hERG).
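Note: peak tail current of the secondary pulse compared with the same well before compound.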

Sequence of human ether-à-go-go-related gene (hERG) potassium channel (Q12809 whole entry, looked up): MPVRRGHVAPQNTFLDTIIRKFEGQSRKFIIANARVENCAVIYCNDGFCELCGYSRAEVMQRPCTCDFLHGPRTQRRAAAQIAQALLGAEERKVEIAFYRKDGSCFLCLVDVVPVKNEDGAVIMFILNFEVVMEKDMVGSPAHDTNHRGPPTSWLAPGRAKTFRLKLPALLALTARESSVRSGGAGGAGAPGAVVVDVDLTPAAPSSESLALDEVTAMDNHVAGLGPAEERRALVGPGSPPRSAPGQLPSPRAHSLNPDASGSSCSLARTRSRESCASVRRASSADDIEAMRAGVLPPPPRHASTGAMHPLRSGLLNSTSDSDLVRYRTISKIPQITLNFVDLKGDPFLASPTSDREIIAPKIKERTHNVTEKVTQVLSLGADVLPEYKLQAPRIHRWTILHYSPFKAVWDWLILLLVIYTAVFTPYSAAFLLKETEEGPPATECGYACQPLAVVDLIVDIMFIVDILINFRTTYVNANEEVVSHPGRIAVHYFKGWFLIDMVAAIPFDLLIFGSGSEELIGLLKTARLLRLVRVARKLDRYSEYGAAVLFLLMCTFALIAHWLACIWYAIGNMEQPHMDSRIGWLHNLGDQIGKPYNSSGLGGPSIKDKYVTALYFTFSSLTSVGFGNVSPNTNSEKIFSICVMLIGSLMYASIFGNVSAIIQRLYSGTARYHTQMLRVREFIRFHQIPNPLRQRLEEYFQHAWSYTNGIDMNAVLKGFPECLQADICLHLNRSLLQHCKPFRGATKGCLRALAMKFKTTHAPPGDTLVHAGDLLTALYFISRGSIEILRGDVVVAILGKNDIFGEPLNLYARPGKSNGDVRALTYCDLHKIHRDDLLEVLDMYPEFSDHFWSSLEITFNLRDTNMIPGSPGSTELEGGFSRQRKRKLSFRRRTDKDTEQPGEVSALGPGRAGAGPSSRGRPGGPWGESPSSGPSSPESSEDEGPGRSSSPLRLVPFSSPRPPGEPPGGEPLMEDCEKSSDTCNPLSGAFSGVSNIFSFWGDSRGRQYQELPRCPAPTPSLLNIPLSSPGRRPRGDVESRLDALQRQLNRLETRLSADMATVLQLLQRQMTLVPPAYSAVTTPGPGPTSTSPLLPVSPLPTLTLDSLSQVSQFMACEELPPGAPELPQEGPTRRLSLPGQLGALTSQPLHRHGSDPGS

Row | SMILES | hERG current change (%, negative = inhibition) at 10uM [%]
1 | COC(=O)CSc1[nH]c2ccc(Br)cc2c1[N+](=O)[O-] | 16.7
2 | COC(=O)NCC(C)OC(=O)Nc1cccc(Cl)c1 (centres unmarked) | -1.92
3 | CCNS(=O)(=O)c1ccc(CCC(=O)Nc2ccccc2C(=O)OC)cc1 | -19.1
4 | CCOC(=O)CSc1cc(C)c(C#N)c2nc3ccccc3n12 | -24.1
5 | COc1ccc(NC(=O)C2CCN(C(=O)c3ccccc3)CC2)c(OC)c1 | -4
6 | O=C(COC(=O)c1cc(-c2ccncc2)nc2ccccc12)Nc1ccc2c(c1)OCO2 | 2.21
7 | O=C(COC(=O)c1nc(Cl)ccc1Cl)NCc1ccc(Cl)cc1 | 1.74
8 | COc1ccc(OC)c(N(CC(=O)NCC2CCCO2)S(=O)(=O)c2ccccc2)c1 (centres unmarked) | 8.03
9 | COc1ccc(-n2c(CN3CCN(c4ccccn4)CC3)nc3ccc([N+](=O)[O-])cc3c2=O)c(OC)c1 | -55.5
10 | CCOC(=O)c1ccc(NC(=O)c2nc[nH]c2C(=O)N[C@H](C)c2ccccc2)cc1 | 12
11 | CC1CCCCN1C(=O)c1cccc(NC(=O)c2ccccc2)c1 (centres unmarked) | -2.4
12 | Cc1cc(NCc2ccccn2)n2nc(C)c(-c3ccccc3)c2n1 | -12
13 | CCOc1cc(S(=O)(=O)NCCN2CCOCC2)c(C)cc1C | 12
14 | COc1cccc(NC(=O)C2CC(=O)N(C)C(=Nc3cccc(F)c3)S2)c1 (centres unmarked) | 4.91
15 | Cc1nn(Cc2ccccc2)c(Cl)c1/C=C/C(=O)OC(C)C(=O)N1CCCC1 (centres unmarked) | 18.7
16 | CSCCC(NS(=O)(=O)c1ccc2c(c1)oc(=O)n2C)C(=O)NC1CCCc2ccccc21 (centres unmarked) | 1.51
17 | CCOc1ccc(NC(=O)c2ccc(OC)cc2)cc1 | 10.5
18 | O=C(CSc1nnnn1-c1ccccc1)N1CCc2ccccc2C1 | -47
19 | O=S1(=O)CC/C(=N\O)c2ccccc21 | 24.1

Row | SMILES | hERG current change (%, negative = inhibition) at 10uM [%]
20 | COc1ccc(-c2cc3nc(-c4ccccc4)cc(N4CCC(O)CC4)n3n2)cc1 | -7.45
21 | Cc1cccc(C(C)C)c1NC(=O)COC(=O)Cc1ccsc1 | 7.1
22 | Cc1ccc(/C=N/n2c(C)nnc2C)s1 | 11.7
23 | CC1C(=O)C(C)C(c2ccc(Br)cc2)NC1c1ccc(Br)cc1 (centres unmarked) | 19
24 | CC(C)C(NC=C1C(=O)OC(C)(C)OC1=O)C(=O)O (centres unmarked) | 8.56
25 | CCOc1ccccc1N=C1SC(CC(=O)Nc2ccc(OC)cc2OC)C(=O)N1CCC1=CCCCC1 (centres unmarked) | -3.98
26 | O=C(NCc1ccc2c(c1)OCO2)c1ccc(CN2CCc3ccccc3C2)cc1 | -52.5
27 | CC(C)(Cc1ccccc1)/[N+]([O-])=C\c1ccccc1 | 8.31
28 | O=C(/C=C/c1cccc(F)c1)N1CCN(c2ncccn2)CC1 | 7.29
29 | CCN(CC)S(=O)(=O)c1cc(NC(=O)COC(=O)c2ccc(NC(=O)CC#N)cc2)ccc1C | 7.1
30 | COc1ccccc1/C=C/C1C(C(=O)OCC(C)C)=C(C)N=C2SCCC(=O)N21 (centres unmarked) | 1.42
31 | CN(C)C(CNC(=O)Cc1c(Cl)cccc1Cl)c1ccccc1 (centres unmarked) | 0.397
32 | COc1ccc(OC)c(C(=O)c2ccc(C(=O)Nc3ccc(NC(C)=O)cc3)cc2)c1 | 14.2
33 | COc1ccc(C(C(=O)NC2CCCCC2)N(C(=O)c2sc(C)nc2C)c2ccc(OC)cc2)cc1 (centres unmarked) | 6.85
34 | Cc1nc2oc(C(=O)c3ccc(Br)cc3)c(N)c2c2c1COC(C)(C)C2 | 11.5
35 | COc1ccc(NS(=O)(=O)c2ccc(OC)c(NC(=O)CCC3CCCCC3)c2)cc1 | 13.3
36 | CCCCCn1c(CCCNC(=O)CC)nc2ccccc21 | -65.9
37 | COc1cc(NS(=O)(=O)c2ccc(NC(=O)c3ccc(S(=O)(=O)N4CCCCC4)cc3)cc2)ncn1 | 25.9
38 | O=C(CCCCCN1C(=O)CCC1=O)Nc1ncn[nH]1 | 11

Row | SMILES | hERG current change (%, negative = inhibition) at 10uM [%]
39 | COc1cccc(Cn2c(Oc3ccccc3)nc3c2c(=O)n(C)c(=O)n3C)c1 | -14.3
40 | Cc1nnc(-c2cnn(-c3ccccc3)c2N)n1Cc1cccc(C(F)(F)F)c1 | -18.8
41 | COc1ccc2nc(C)cc(NCc3cccc(C(F)(F)F)c3)c2c1 | -31.7
42 | CS(=O)(=O)Nc1ccc(-c2cn3cccnc3n2)cc1 | 7.9
43 | COc1ccc(C(=O)Nc2ccc(S(=O)(=O)Nc3nccc(C)n3)cc2)cc1 | 22.9
44 | CN(C)c1ccc(N=Nc2nc3ccccc3n2C)cc1 | 2.62
45 | Br.O=C(CN1CCCCC1)c1cccc(Br)c1 | 7.58
46 | O=c1oc(Nc2ccccc2F)nc2ccccc12 | 23.7
47 | CCOC(=O)N1CCN(C(=O)CSCc2ccc(Cl)cc2)CC1 | -28.2
48 | O=C1COc2ccc(C(=O)CSc3nc4ccccc4c(=O)n3-c3ccc(Cl)c(Cl)c3)cc2N1 | 20.4
49 | Nc1nnc(SCC(=O)OCC(=O)Nc2ccc(Br)cc2F)s1 | 9.72
50 | Cc1cccc(NC(=S)NC2CC3C=CC2C3)c1 (centres unmarked) | -1.72
51 | O=C(O)/C=C/c1cn(-c2ccccc2)nc1-c1ccc(-c2ccc([N+](=O)[O-])cc2)o1 | 4.4
52 | CCN1/C(=N\N)c2cccc3cccc1c23 | 9.75
53 | O=C(Nc1nnc(C2CC2)s1)c1cccs1 | 21.5
54 | CSCC[C@H](NC(=O)C1CCN(S(=O)(=O)c2ccc(C)cc2)CC1)C(=O)NCC1CCCO1 (some centres unmarked) | -13.2
55 | Cc1ccc(C(=O)OCc2cc(=O)n3c(C)csc3n2)s1 | -31.7
56 | CCNc1nc(NCC)nc(N(C#N)C(C)C)n1 | -3.21
